# Values of other authors in patent US6812380B2, “Compositions and methods of zearalenone detoxification” (Pioneer Hi-Bred International, Inc., priority 2001, dated 2004).
# Details: zearalenone and/or its derivatives; cited from earlier work
smiles,measurement,value
C[C@H]1CCCC(=O)CCC/C=C/c2cc(O)cc(O)c2C(=O)O1 [zearalenone],genotoxicity,genotoxic
